# ± gives the standard deviation. In all, about 6,600 sequences were measured (“pre-steady-state target cleavage rate”: median about 0.07, highest 2% from about 0.72 on). Only a part is listed here, and it is no random draw.
# Test system: MIWI (PIWIL1) piRISC loaded with Kctd7 piRNA (30 nt)
# Test: pre-steady-state target cleavage rate (min^-1); MIWI and MILI are mouse PIWI proteins and EfPiwi is from a freshwater sponge; tags in brackets are library labels; higher = faster piRNA-guided slicing of the target
# Conditions: guide: Kctd7 piRNA 5'p-UGUUAAUCUCUCAGAGAAGGUGACAGUGAU; auxiliary factor: 500 nM mouse GTSF1
# Outline: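 Sequencing of uncleaved targets, normalised to depth and to weakly complementary targets, was the readout of this Cleave-'n-Seq assay. A transcribed, DNA-blocked target RNA library (0.1 nM) was mixed with 1 nM active affinity-purified piRISC carrying one synthetic guide, with or without 500 nM GTSF1 partner protein, in HEPES–potassium acetate buffer at 33 °C for 0–8 or 0–960 min. Three trials were pooled, k3 was capped at 0.0001 min^-1, and a burst-and-steady-state fit gave the pre-steady-state cleavage rate.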
row,Sequence,pre-steady-state target cleavage rate
1,UAGUGACAGACCAACUCUGAGAGAUUAACA,0.00397 ± 0.0025
2,UAGUGACAGUGGAAGACUGAGAGAUUAACC [g2:g14:cont:t1C],< 0.0001
3,UAGACUGUCAGCUUCUCUGAGAGAUUAAGA,0.0909 ± 0.017
4,UAGACACUCACCUUCUCUGAGAGAUUAACA,0.642 ± 0.039
5,UUCACUGUCAUCUUCUCUGAGAGAUUAACA,0.596 ± 0.027
6,UUCACAGUCACCUUCACUGAGAGAUUAACA,0.376 ± 0.027
7,UAGUGACACACCUAGUCUGAGAGAUUAACA,0.0121 ± 0.0034
8,UAGUGACAGUGCUUCUCUGAGAGAAUAAGA,< 0.0001
9,AUCACUGUCACCUACUCUCAGAGAUUAACA,0.0744 ± 0.0084
10,UAGUGACACACCUUCUCUGAGAGAUUAAUA,0.37 ± 0.046
11,UACACUGACACCUUCUCUGAGUGAUUAACA,0.0293 ± 0.0068
12,UAGUCUGUCUCCUUCUCUGACAGAUUAACA,0.0368 ± 0.0053
13,UUCACUGUCACCUUGUCUGAGACAUUAACA,0.193 ± 0.026
14,UAGUGACAGACCUACUCUGAGAGAUUAAGA,0.0057 ± 0.003
15,UAGUCUGUCACCUUCUCUCAGAGAAUAACA,0.0232 ± 0.0076
16,UAGACUGAGACCUUCUCUGAGAGAUUAUGA,0.0178 ± 0.0037
17,UAGUGACUCACCUUCUCUCAGAGAUUAAGA,0.0182 ± 0.0076
18,UAGUGUGUCACCUUCACUGAGAGAUUAUGA,0.0366 ± 0.016
19,UAGUGAGUCUCCUUCUCUGAGAGAUUAAGA,0.0391 ± 0.0095
20,AUGACUGUCACCUUCUCUGUGAGAUUAACA,0.278 ± 0.013
21,UAGUGUGUCACCUUGUCUGAGACAUUAACA,0.108 ± 0.02
22,UAGUGACACACCUUCUCUGAGAGUAAUUGA [g8:g22:cont:t1A],0.00437 ± 0.0037
23,UAGUCUGUCACCUUCUCUGAGCAGAUUAACA,0.00314 ± 0.003
24,AUCACACUCACCUUCUCUGAGAGAUUAAGA,0.101 ± 0.019

row,Sequence,pre-steady-state target cleavage rate
1,AUCACUGUGACCUUCUCUGAGAGAAUAACA,0.28 ± 0.043
2,UUCUCUGUCACCUUCUCUGAGUGAUUAACA,0.0369 ± 0.0078
3,UAGUGACACACCUAGUCUGAGAGAUUUUGA,< 0.0001
4,UAGUGACAGACCUUCUCUGAGAGAUUAACG [g2:g21:cont:t1G],0.104 ± 0.013
5,UAGUGUGUCACCUUCUCUGAGAGUUUUACA,0.152 ± 0.032
6,UUCACUGUCACCAACUCUGAGAGAUUAUGA,0.0107 ± 0.0037
7,UUCACUGUCACCUUCUCAUGAGAGAUUAACA,0.145 ± 0.051
8,UAGUCUGUCACCUUCUCUGUGAGAUUUACA,0.193 ± 0.022
9,UAGACUCUCACCUUCUCUGAGACAUUAACA,0.314 ± 0.028
10,UAGUGACAGACCUUCUCUGAGAGAUGUAACA,0.0594 ± 0.0092
11,UUCACUGUCACCUUCUCUGAGACAUUUUGA,0.0049 ± 0.0038
12,UAGUGACUCACCUUCUGUGUGAGAUUAACA,0.0331 ± 0.0039
13,UAGUGACUCACCUUCUCUGAGAGAUAACA,0.0123 ± 0.0033
14,UAGUGACACACCUUCUGUGACAGAUUAACA,0.0896 ± 0.016
15,UAGUGACUCACCUUCUCUGAGACAUUAACA,0.234 ± 0.029
16,UAGUGAGUCACCAUGUCUGAGAGAUUAACA,0.0568 ± 0.0081
17,UUCACUGUCUGGUUCUCUGAGAGAUUAAGA,0.0293 ± 0.0053
18,UAGACUGUCACCUUCUGUCAGAGAUUAACA,0.00627 ± 0.0021
19,UACACUGUCAGCUUCUCUGAGAGAUAAACA,0.21 ± 0.02
20,UAGUCUGUCACCUUCUCUCAGAGAUUUACA,0.0799 ± 0.014
21,AUCACUGUCACCUUCUCUGAGAGAAUAUCA,0.37 ± 0.086
22,UAGAGACUCACCUUCUCUGAGAGAUUUUGA,0.0406 ± 0.0092
23,UUCACUGUCACCUUCUCUGAGAGAUUCACA,0.554 ± 0.087
24,UAGUCUGUCACCUUCCUCUGAGAGAUUAACA,0.453 ± 0.03

row,Sequence,pre-steady-state target cleavage rate
1,UAGUGACAGACCUUCUCUGAGGGAUUAACA,0.117 ± 0.016
2,UUGUGUGUCACCUUCUCUGAGAGAUUAUGA,0.11 ± 0.021
3,UAGACUGUCACCUUCUCUGAGAGAUAUAGA,0.00718 ± 0.004
4,AUCAGUGUCUCCUUCUCUGAGAGAUUAACA,0.585 ± 0.04
5,UAGUGUGUCACCUCCUCUGAGAGAUUAACA,0.575 ± 0.033
6,UUCACUGUCACCUUCUCUGAGAGAUAUUCA,0.366 ± 0.07
7,UAGUGUGUCACCUUCUCUGACUCAUUAACA,0.0111 ± 0.0044
8,UAGUCUCUCACCUUCUCUGAGAGAUAUUGA,0.00804 ± 0.0044
9,UACACUGUCACCUUCUACUGAGAGAUUAACA,0.0919 ± 0.04
10,UAGUGACUCACCUUCUCAGAGACAUUAACA,0.0427 ± 0.0055
11,UAGUGAGUCACCUUCUCAGAGAGAUUUACA,0.122 ± 0.018
12,UACACAGUCACCUUCUCUGAGAGAUUAACA,0.589 ± 0.038
13,UACACUGUCACGUUCUCUGAGAGAUUUACA,0.245 ± 0.035
14,UAGUGACAGACCUUCUCUGAGAAGAUUAACA,0.00788 ± 0.0039
15,AACACUGUCACCUUCUCUGACAGAUUAACA,0.366 ± 0.021
16,AUCACUGUCACCAAGUCUGAGAGAUUAACA,0.25 ± 0.024
17,UAGACUGUGUCCUUCUCUGAGAGAUUAACA,0.504 ± 0.038
18,UAGACUGUCACCUUCUCUGUCAGAUUAACA,0.00592 ± 0.0022
19,UACACAGUCACCUUGUCUGAGAGAUUAACA,0.155 ± 0.023
20,UAGUGACAGUCCUUCUCUGAGAGAAAAACA,0.00477 ± 0.0023
21,AUCAGUGUCACCUUCUCUGAGAGAUUAUGA,0.0526 ± 0.017
22,UAGUGACAGACCUUCUCUGAGAGAGUAACA,0.0502 ± 0.01
23,UAGUCUGUCACCUUCUCUGAGUGAUUAACA,0.0351 ± 0.0074

# Reference: the supplement of paper PMC10338343
